The RNAGym collection of RNA variant scans (doi:10.1093/nar/gkz1192)
Read counts are not given, so values of variants with three or more changes are uncertain.

B1: CPEB3 Ribozyme (parent)
chain: UAACAGGGGGCCACAGCAGAAGCGUUCACGUCGCAGCCCCUGUCAGAUUCUGGUGAAUCUGCGAAUUCUGCUGUAUAUCUC

Variants of: B1
Test: self-cleavage, relative activity (ratio to wild type); higher = more cleavage; in vitro, sequencing
Procedure, shortened: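 Relative activity compares each variant's cleaved/total read fraction with that of the unmutated ribozyme. To get these fractions, barcoded CPEB3 ribozyme libraries from rounds of error-prone PCR were transcribed with T7 RNA polymerase for 5 hours at 37°C and then given 15 min of DNase I treatment before EDTA was added. The RNAs were reverse transcribed with template switching and sequenced on Illumina, and DNA sequencing linked barcodes to variants. A minimum of 5 reads applied, and three batches were averaged.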

Variant | self-cleavage
A20G U25C U41C U49C | 0.26
A20G U26C C38A A45G | 0.23
A20G U54C A65G U72A | 0.36
A20G U54G U60C G63C | 0.25
A20U C38U U60C A64G A65C A75U | 0.06
A20U A56U U58C | 0.17
A20G U72A U80A | 0.43
A20G U26C U48C U51A U76A U78C | 0.23
A20G U51A A64C | 0.56
A20U A65G U78C | 0.22
A20U C29G U31A A57C U69A U72A | 0.05
A20G U26A A28U U60C U69A U72C | 0.18
A20G U43G U69A U78C | 0.21
A20G U26G U51A U58A | 0.19
A20U C32A U72C | 0.2
A20G U31A U41A A47G U67C | 0.18
A20G U25C U26C U51A A57G | 0.08
A20G U58A A65U U67C U69A U78C | 0.09
A20U A21U G24A G52A U66C U69C | 0.07
A20G U67A U76C | 0.84
A20U A47G U72C U80C | 0.16

Variant | self-cleavage
A20G U48G A57C U67C | 0.84
A20G U60C U80A | 0.34
A20G U67A U72A | 0.6
A20G U26A U51A U78C | 0.36
A20G U25C U31C G33C U49A | 0.07
A20U C29U U31A U76A A77U | 0.1
A20G U66A U74C U78C | 0.65
A20G U26A U66A U78C | 0.24
A20G U31C U51C | 0.41
A20G U26C G30A U58C | 0.07
A20U A21U U26C | 0.24
A20G U26C A56G U69C C81U | 0.21
A20G U31C A47G | 0.56
A20G U41A U54A A75U | 0.1
A20U A28G U41A A56U A57G | 0.15
A20G U25C U26C A45U G63A | 0
A20G U60A U76C A77U | 0.39
A20G U67C U69G U76C | 0.75
A20G U25A U31A U43C A77G U78A C79U | 0.23
A20U A28C U41C U43C | 0.21
A20G U31A A35U U48C | 0.18

Variant | self-cleavage
A20U G22A A57G | 0.04
A20U G33A A35G | 0.24
A20G U31C A35G U49C A56G A65G | 0.23
A20G U25A U43C U67A U80C | 0.18
A20G U48C G52A A57G | 1.06
A20G U51C A65G U72A | 0.31
A20G U48C A64G U72C | 0.13
A20G U26C A56G G61A | 0.05
A20G U58A U72G | 0.27
A20G U41C U54A | 1
A20G U25C U51C A56G | 0.43
A20U A35G G63A U69C G73A | 0.43
A20G U41C U54C U69C | 0.18
A20G U41C A45U A64G | 0.16
A20U A45G U58C G70A U72C U76A | 0.07
A20U C29U A56U | 0.12
A20U G33A A45U | 0.13
A20G U58C U78C | 0.35
A20G U26C G55U | 0.12
A20G U26C A45G U72A | 0.14
A20G U41C U69C U72A U80C | 0.26

Variant | self-cleavage
A20G U26C U51A G55A | 0.09
A20G U72A U78A | 1.2
A20G U26C U51A | 0.51
A20G U58C A65U | 0.07
A20G U41C A45G U49C | 0.26
A20G U25C A35U A64U | 0.14
A20G U48C U80C | 0.66
A20G U49A A77G U78G | 0.36
A20G U31C U72C | 0.53
A20G U41A U43A U58C | 0.11
A20G U25C A56U | 0.11
A20U G22U C40U U78C | 0.13
A20G U41C A56G U67C | 1.05
A20G U26C U69A | 0.35
A20U A35G C39U U76C | 1.07
A20G U69C U76C | 0.65
A20G U31A A45G U49A U60A | 0.16
A20U A45C U49C U69A | 0.05
A20U C23U U54C A64G | 0.35
A20U C32U A35G U41C U66C U67C | 0.07
A20G U31G A35G U43C U54C U60C | 0.28
